In PMC4336329 (PLoS ONE, 2015):
In all, about 310,000 compounds went through this assay and about 14,000 (4.5%) showed an effect of 50% or more. Effects have a minus sign here. Some of the results follow.

What follows are compounds tested against human ether-à-go-go-related gene (hERG) potassium channel (human, UniProt Q12809) (assay: primary screen, population patch clamp on CHO cells stably expressing hERG).
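Also: peak tail current of the secondary pulse compared with the same well before compound.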

human ether-à-go-go-related gene (hERG) potassium channel, sequence (Q12809 whole entry, looked up): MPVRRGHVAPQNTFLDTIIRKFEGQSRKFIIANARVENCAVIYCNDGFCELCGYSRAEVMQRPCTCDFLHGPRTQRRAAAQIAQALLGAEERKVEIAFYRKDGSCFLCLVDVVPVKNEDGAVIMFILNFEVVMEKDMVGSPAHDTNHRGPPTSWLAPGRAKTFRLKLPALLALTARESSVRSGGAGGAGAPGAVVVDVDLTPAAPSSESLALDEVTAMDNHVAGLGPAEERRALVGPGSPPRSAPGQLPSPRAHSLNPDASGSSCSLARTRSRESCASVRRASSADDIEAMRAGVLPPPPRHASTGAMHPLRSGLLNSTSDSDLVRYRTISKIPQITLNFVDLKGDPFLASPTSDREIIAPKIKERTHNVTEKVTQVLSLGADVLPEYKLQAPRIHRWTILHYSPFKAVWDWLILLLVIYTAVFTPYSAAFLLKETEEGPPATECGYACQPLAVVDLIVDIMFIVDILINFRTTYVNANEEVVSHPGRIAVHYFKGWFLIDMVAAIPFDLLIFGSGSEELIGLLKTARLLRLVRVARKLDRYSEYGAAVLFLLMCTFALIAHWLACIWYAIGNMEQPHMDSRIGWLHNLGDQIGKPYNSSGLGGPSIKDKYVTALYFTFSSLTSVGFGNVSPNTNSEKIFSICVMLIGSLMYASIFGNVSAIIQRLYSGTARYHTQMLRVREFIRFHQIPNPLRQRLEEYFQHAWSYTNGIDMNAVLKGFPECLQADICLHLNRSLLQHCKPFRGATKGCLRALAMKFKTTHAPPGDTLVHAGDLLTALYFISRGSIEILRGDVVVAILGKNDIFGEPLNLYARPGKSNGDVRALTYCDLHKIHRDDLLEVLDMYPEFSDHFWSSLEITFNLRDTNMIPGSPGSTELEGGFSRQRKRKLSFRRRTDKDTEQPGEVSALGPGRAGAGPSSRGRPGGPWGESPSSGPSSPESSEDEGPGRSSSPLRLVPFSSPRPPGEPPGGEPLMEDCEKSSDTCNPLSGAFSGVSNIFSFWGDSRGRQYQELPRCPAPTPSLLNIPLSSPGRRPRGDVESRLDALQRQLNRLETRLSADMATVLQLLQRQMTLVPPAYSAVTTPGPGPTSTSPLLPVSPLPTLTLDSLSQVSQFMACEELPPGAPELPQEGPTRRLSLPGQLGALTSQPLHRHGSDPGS

| Structure (SMILES) | hERG current change (%, negative = inhibition) at 10uM [%] |
| --- | --- |
| Cc1ccc2c(COC(=O)c3ccccc3OC(F)F)cc(=O)oc2c1 | 27.8 |
| O=C(CN1CCOC1=O)N1CCCC(Nc2ccc(F)c(F)c2)C1 (stereo not shown) | 2.91 |
| C/C=C/C(=O)OCC(=O)Nc1ccccc1Br | 23.6 |
| COCCCNC(=O)c1ccc2c3c(onc13)-c1ccccc1C2=O | -3.25 |
| NC(=O)c1ccccc1NC(=O)CC12CC3CC(CC(C3)C1)C2 | -0.125 |
| O=C(NCC(c1cccnc1)N1CCN(c2ccccc2)CC1)c1ccco1 (stereo not shown) | 10.6 |
| O=c1ccc2cc([N+](=O)[O-])c(CCO)cc2o1 | 11.3 |
| CN1CCN(C(=O)c2ccc3ccccc3c2)CC1 | -17.5 |
| Cc1ccc(C2=NN(CCC#N)C(=O)CO2)cc1 | 8.78 |
| COc1ccccc1CNC(=O)CCCC(=O)n1nc(C)c2ccccc21 | -14.1 |
| CCCNC(=O)CN(C)S(=O)(=O)c1c(C)cc(C)cc1C | 6.62 |
| O=C(NCc1ccc2c(c1)OCO2)Nc1cccc2ccccc12 | 0.281 |
| Cc1ccccc1Nc1nc(N)nc(CSc2nnc(-c3ccccc3)n2C)n1 | -12.2 |
| CCOc1ccc(C(=S)NC2CCCCC2)cc1OC | -1.75 |
| Cc1ccc(NS(=O)(=O)c2ccc(Cl)c(C(=O)O)c2)cc1S(=O)(=O)N1CCOCC1 | 11.3 |
| CCCOC(=O)c1ccc(NC(=O)CCOc2ccccc2)cc1 | -2.82 |
| CCCCNc1nc2c(c(=O)n(Cc3ccccc3)c(=O)n2C)n1C | 14 |
| CCOCN(C(=O)Cn1c(C(C)O)nc2ccccc21)c1c(C)cccc1CC (stereo not shown) | 4.08 |
| O=C(Nc1cccc(F)c1)c1ccco1 | 12 |
| O=C(NC1=NCCS1)c1sc2ccccc2c1Cl | 7.85 |
| O=c1[nH]c(/C=C/c2ccccc2F)nc2ccccc12 | 11.6 |
| Cc1ccc(C(=O)N/C(=C\c2cccs2)C(=O)NCCCn2ccnc2)cc1C | -61 |
| COc1ccc(NC(=O)COC(=O)c2c(-c3ccccc3)noc2C)cc1 | 0.159 |

| Structure (SMILES) | hERG current change (%, negative = inhibition) at 10uM [%] |
| --- | --- |
| S=c1[nH]nc(CCCc2n[nH]c(=S)o2)o1 | 19.1 |
| O=C(Cc1noc2ccccc12)Nc1ccc2ccccc2c1 | 0.898 |
| Cc1ccc2c(c1)CCCN2C(=O)c1ccncc1 | 7.75 |
| O=C(NC12CC3CC(CC(C3)C1)C2)c1cc2nc(-c3ccco3)cc(C(F)(F)F)n2n1 | 3.96 |
| COc1ccc([C@H]2CC(=O)C=C(c3cccc(C(F)(F)F)c3)C2)cc1 | -14.4 |
| COc1cc2sc3ccc(C#Cc4ccccn4)cc3c(=O)c2cc1OC | 14.9 |
| O=S(=O)(N1CCCCC1)N1CCN(c2cc(Cl)ccc2Cl)CC1 | 15.2 |
| Cc1nc2sc(C(c3cccs3)N3CCN(c4cccc(Cl)c4)CC3)c(O)n2n1 (stereo not shown) | -38.8 |
| Cc1c(NC(=O)C(C)Sc2nc(N)cc(=O)[nH]2)c(=O)n(-c2ccccc2)n1C (stereo not shown) | 18.5 |
| COC(=O)Nc1ccc(C)c2nsnc12 | -1 |
| COc1ccc(C2=Nc3cc(C)ccc3OC2)cc1 | 12.9 |
| CS(=O)(=O)Nc1ccc(C2=NN(S(=O)(=O)c3ccc(F)cc3)C(c3ccco3)C2)cc1 (stereo not shown) | -70.2 |
| CC1=C(C(=O)OCc2ccccc2)C(c2ccc3ccccc3c2)NC(=O)N1CCCCCC(=O)O (stereo not shown) | -14.1 |
| N#C/C(=C/c1ccc2c(c1)OCO2)C(=O)Nc1ccc(O)cc1 | -0.516 |
| CCN(c1ccc(NC(=O)COC(=O)c2cc3ccccc3oc2=O)cc1)C(C)C | -3.57 |
| CC(OC(=O)c1cccc(NS(C)(=O)=O)c1)C(=O)Nc1ccc(N2CCOCC2)cc1 (stereo not shown) | 3.1 |
| CCSc1nnc(NC(=O)c2ccccc2C)s1 | 17.6 |
| COCCn1c(SCC(=O)c2ccccc2)nc2ccccc2c1=O | -12.4 |
| CC(=O)CCc1ccc(OC(=O)c2cccnc2)cc1 | 14.4 |
| CSc1nnc(Cn2c(=O)sc3ccccc32)n1-c1ccccc1C | 4.71 |
| CCN(CC)c1ccc(NC(=O)Nc2cccc(C(C)=O)c2)cc1 | -6.8 |
| Cn1nnnc1SCC(=O)NC(=O)NCc1ccccc1 | 8.75 |
| CC(=O)OC(C(=O)NC1CCCCC1)c1ccc(C)cc1 (stereo not shown) | 5.65 |

| Structure (SMILES) | hERG current change (%, negative = inhibition) at 10uM [%] |
| --- | --- |
| Cc1noc(C)c1C(=O)N(CC(=O)Nc1ccccc1Br)Cc1ccco1 | -13.4 |
| CCC1CCCCN1CCNC(=O)C1CCN(S(=O)(=O)c2c(C)noc2C)CC1 (stereo not shown) | 3.12 |
| CN(C)C(=O)CN1C(=O)NC(c2ccccc2)(c2ccccc2)C1=O | -1.04 |
| CCC(=O)c1ccc(N2CCN(C(=O)c3ccccc3Br)CC2)c(F)c1 | -26.8 |
| O=C1CC[C@@H](O)CCN1CC[C@H](Sc1ccc(Br)cc1)c1ccccc1 | -29.6 |
| O=C(O)C1(c2ccccc2)CCN(S(=O)(=O)c2cccc(Cl)c2)CC1 | 9.58 |
| O=C(CN1CCN(Cc2cccc(Cl)c2)C1=O)N1CCC2(CC1)OCCO2 | 14.7 |
| CC(C)c1ccc2c(c1)C(=O)NC(C)(C)C2 | -9.41 |
| COc1cccc(C2SCC(=O)N2c2cccc(C)c2)c1OC (stereo not shown) | -10.7 |
| CC1=C/C(=C/N(C)c2ccccc2)C(=O)S1 | -3.05 |
| O=c1ncn(-c2ccccc2F)c2ncccc12 | -8.06 |
| Cc1nc(NC(=O)CSc2nnc(C)n2CC2CCCO2)sc1C (stereo not shown) | -0.562 |
| Cc1oc2cc3oc(=O)c(CC(=O)O)c(C)c3cc2c1-c1ccccc1 | 14.3 |
| COc1ccc(C(=O)O/N=C(\N)Cc2ccc(Cl)cc2Cl)cc1OC | -25.4 |
| Cc1ccc(Cl)cc1NC(=O)N[C@@H](C)C(=O)O | 11.3 |
| CN1CCN(NC(=O)c2cc(S(=O)(=O)Nc3ccc(Cl)cc3)ccc2Cl)CC1.Cl | 5.84 |
| O=C(N/N=C/c1ccc(N2CCOCC2)cc1)c1ccc(NS(=O)(=O)c2cccs2)cc1 | 9.69 |
| Br.O=C(CNc1ccc(F)cc1)c1ccccc1 | 17.1 |
| Cn1ncc(N=Cc2ccccc2)c1C(=O)Nc1cccc(Cl)c1 | 11.8 |
| COc1cc(C2OCC3C(c4cc(OC)c(OC)c(OC)c4)OCC23)cc(OC)c1OC (stereo not shown) | 5.48 |
| CCCNS(=O)(=O)c1ccc(OCC(=O)N2CCCC2)cc1 | 8.81 |
| COc1cc(/C=N/NC(=O)c2ccc(NC(=O)C3CC3)cc2)ccc1OC(C)=O | 1.29 |
| COc1cccc(/C=C2\SC(=O)N(CCC(=O)N3CCC(C(=O)O)CC3)C2=O)c1 | 6.76 |

| Structure (SMILES) | hERG current change (%, negative = inhibition) at 10uM [%] |
| --- | --- |
| Cc1cccc(NC(=S)NC(=O)c2ccc(Br)o2)c1 | 5.32 |
| COc1ccc(C(=O)NCc2cc(C)nc3ccccc23)cc1OC | -8.56 |
| O=C(Nc1nccs1)c1ccc(Cl)c(S(=O)(=O)N2CCCCC2)c1 | 5.94 |
| CCOc1ccccc1OCCNC1CCCC1 | 8.26 |
| COc1ccc(CCNS(=O)(=O)c2cccc([N+](=O)[O-])c2)cc1 | -17.5 |
| CCCC(c1nnnn1C1CCCC1)N1CCN(c2ccccc2F)CC1.Cl (stereo not shown) | -27.9 |
| CSc1ccccc1OCc1cc(C(=O)NC2CCOC(C)(C)C2)no1 (stereo not shown) | 5.07 |
| CC(=O)Nc1cccc(OCCCOc2ccc([N+](=O)[O-])cc2)c1 | 15.2 |
| Cc1ccccc1OCC(=O)NS(=O)(=O)c1ccc(Cl)cc1 | 14.8 |
| CCN(CC)CC(=O)c1c[nH]c2ccc(OC)cc12 | -22.9 |
| Cc1onc(-c2c(Cl)cccc2Cl)c1C(=O)Nc1ccc2c(c1)OCO2 | -23 |
| COc1ccc(Cl)cc1-c1nc(SCC(=O)NC2CC2)n[nH]1 | -9.95 |
| O=C(Nc1ccccc1Cl)C1CCN(S(=O)(=O)c2cccc3nonc23)CC1 | 16 |
| CCc1c(C#N)c(SCCC(=O)Nc2ccc(C)cc2)nc2c1C(=O)CC(C)(C)C2 | 10.6 |
| COc1ccc(NC(=S)N(CCCN2CCCC(C)C2)Cc2cccs2)cc1 (stereo not shown) | -68.9 |
| CCC1CCc2c(sc(NC(=O)C3c4ccccc4Oc4ccccc43)c2C(N)=O)C1 (stereo not shown) | 2.02 |
| O=C(CSc1nnc(-c2ccccc2)c(-c2ccccc2)n1)Nc1ncc(Cl)cc1Cl | -13.9 |
| CC(C)CN(CCNC(=O)CN1C(=O)CSc2ccc(S(=O)(=O)N3CCOCC3)cc21)CC(C)C | -25 |
| COc1cccc(-n2c(CNc3ccc(F)cc3)nnc2SCC(N)=O)c1 | -11.8 |
| CC(OC(=O)c1cc(=O)[nH]c2ccccc12)C(=O)Nc1ccccc1F (stereo not shown) | -1.86 |
| CCOc1cc(CO)cc(Br)c1OCC(N)=O | 17.7 |
| COc1ccccc1C(=O)Nc1ccc(S(=O)(=O)NC2=NCCCCC2)cc1 | 13.4 |
